{"source": "paper PMC10668032", "note": "This is one part of the list. At the low end of the ranking the order means little."}
{"molecular_target": "SIX1 homeodomain (reference allele) (UniProt Q15475)", "experiment": "universal protein binding microarray", "conditions": "Universal all-10-mer PBM (8x60K, AMADID 030236), 300 nM GST-tagged protein, Alexa Fluor 488 anti-GST; buffer, salt, pH and temperature not stated; high values mean tight binding; most listed sequences are background and not binding sites; double strand, one strand shown", "units": {"binding signal": "E-score"}}
{"sequence": "CTAGGGCC", "binding signal": -0.274}
{"sequence": "CGTAGACA", "binding signal": -0.23}
{"sequence": "AGCCGACG", "binding signal": -0.0518}
{"sequence": "CCGCATTA", "binding signal": 0.157}
{"sequence": "AGAAATTG", "binding signal": -0.205}
{"sequence": "GGGACTTA", "binding signal": -0.273}
{"sequence": "AGACTTGG", "binding signal": -0.196}
{"sequence": "AGCACGTA", "binding signal": 0.0461}
{"sequence": "CTAGTCAG", "binding signal": -0.0589}
{"sequence": "TATTGGCA", "binding signal": 0.223}
{"sequence": "GCCGATAA", "binding signal": 0.0925}
{"sequence": "GCAGCCCC", "binding signal": 0.0292}
{"sequence": "CGTCCTGC", "binding signal": -0.0398}
{"sequence": "GGACATCA", "binding signal": -0.354}
{"sequence": "AATTTGAG", "binding signal": -0.0286}
{"sequence": "CCACATTA", "binding signal": -0.151}
{"sequence": "CAGGTATG", "binding signal": 0.0947}
{"sequence": "ACCCGATA", "binding signal": 0.4}
{"sequence": "GTATCGTA", "binding signal": 0.423}
{"sequence": "CCAAGGAA", "binding signal": -0.0173}
{"sequence": "GCAGGATA", "binding signal": 0.329}
{"sequence": "ACACCGCC", "binding signal": 0.321}
{"sequence": "ATCCGGGC", "binding signal": 0.356}
{"sequence": "CGCGGTAA", "binding signal": 0.00277}
{"sequence": "AGGTCGAC", "binding signal": -0.0928}
{"sequence": "ACATTCGC", "binding signal": -0.215}
{"sequence": "AATGACCA", "binding signal": -0.172}
{"sequence": "AACAGCTC", "binding signal": -0.124}
{"sequence": "GCTTGAAC", "binding signal": 0.0493}
{"sequence": "GCCTAGCC", "binding signal": -0.105}
{"sequence": "ACAGCTTA", "binding signal": -0.185}
{"sequence": "CATGTGCC", "binding signal": -0.149}
{"sequence": "CGCCACAA", "binding signal": -0.148}
{"sequence": "ACCGGTTC", "binding signal": -0.0619}
{"sequence": "ACTCTAAA", "binding signal": -0.129}
{"sequence": "CGTGTTAG", "binding signal": 0.028}
{"sequence": "GTCAAAAC", "binding signal": -0.239}
{"sequence": "ATTAGCCC", "binding signal": -0.156}
{"sequence": "GAGGGATA", "binding signal": 0.412}
{"sequence": "CACCGGTG", "binding signal": 0.196}
{"sequence": "GATTCTCC", "binding signal": 0.0562}
{"sequence": "ATCCCAGG", "binding signal": 0.246}
{"sequence": "CCCCGACC", "binding signal": 0.0718}
{"sequence": "AATTCGGG", "binding signal": 0.0243}
{"sequence": "AGGTGGTC", "binding signal": 0.00885}
{"sequence": "GAATAAAA", "binding signal": -0.255}
{"sequence": "GCTAGCCC", "binding signal": -0.161}
{"sequence": "CCATGTGA", "binding signal": 0.122}
{"sequence": "ACACCACG", "binding signal": 0.263}
{"sequence": "CGCCCGAG", "binding signal": -0.0287}
{"sequence": "AAGCTGCG", "binding signal": -0.101}
{"sequence": "ATGACAGG", "binding signal": -0.127}
{"sequence": "AAACTAAC", "binding signal": -0.0834}
{"sequence": "GAGGGTCC", "binding signal": -0.0976}
{"sequence": "AAGGCGTC", "binding signal": 0.0089}
{"sequence": "ATCCGTAG", "binding signal": 0.225}
{"sequence": "CAGACGAC", "binding signal": -0.0852}
{"sequence": "AGTCAAGC", "binding signal": -0.29}
{"sequence": "ATGTTGTG", "binding signal": -0.101}
{"sequence": "AGTAGGTA", "binding signal": -0.0689}
{"sequence": "ACTCGTCA", "binding signal": -0.179}
{"sequence": "AGCGTAGG", "binding signal": -0.16}
{"sequence": "GAAAGTAA", "binding signal": -0.247}
{"sequence": "ATTGAGTC", "binding signal": -0.0942}
{"sequence": "AACATAGC", "binding signal": 0.00249}
{"sequence": "CAGCCCTG", "binding signal": -0.149}
{"sequence": "CGGACGTA", "binding signal": -0.0342}
{"sequence": "CGACACGA", "binding signal": 0.144}
{"sequence": "GCTTAATA", "binding signal": 0.169}
{"sequence": "GAACGTGC", "binding signal": -0.242}
{"sequence": "CGTTCATC", "binding signal": 0.0166}
{"sequence": "CGACCGGA", "binding signal": 0.0691}
{"sequence": "CCGATGTA", "binding signal": 0.00377}
{"sequence": "CATTATGA", "binding signal": 0.0814}
{"sequence": "GAACTTGC", "binding signal": -0.383}
{"sequence": "CTGCTCTA", "binding signal": -0.0529}
{"sequence": "CCATGGGA", "binding signal": 0.117}
{"sequence": "ATCTCATA", "binding signal": 0.246}
{"sequence": "AAACGCAA", "binding signal": -0.169}
{"sequence": "CGGCCCCA", "binding signal": -0.0943}
{"sequence": "AAGTTCTA", "binding signal": -0.105}
{"sequence": "GGTGTCGA", "binding signal": 0.408}
{"sequence": "ATGAAGAA", "binding signal": -0.0444}
{"sequence": "GAATCAGC", "binding signal": -0.0801}
{"sequence": "GTGAAAGA", "binding signal": 0.0314}
{"sequence": "CCAGGGTC", "binding signal": -0.133}
{"sequence": "CCCAAGGA", "binding signal": 0.111}
{"sequence": "AAAGCCCT", "binding signal": -0.32}
{"sequence": "TCCGATAA", "binding signal": 0.223}
{"sequence": "AGGAGGGA", "binding signal": 0.0873}
{"sequence": "ACCGTCTG", "binding signal": -0.0585}
{"sequence": "GGACCCTA", "binding signal": -0.064}
{"sequence": "TCGAAACA", "binding signal": 0.0762}
{"sequence": "GGCCCAGA", "binding signal": -0.116}
{"sequence": "GCATTGAC", "binding signal": -0.0541}
{"sequence": "TAAAAGGA", "binding signal": -0.0906}
{"sequence": "CCGGCGCC", "binding signal": -0.132}
{"sequence": "GTACTAAC", "binding signal": -0.105}
{"sequence": "AAAGTAGT", "binding signal": -0.105}
{"sequence": "CATGGTGG", "binding signal": -0.0573}
{"sequence": "TAGATAAA", "binding signal": 0.225}
{"sequence": "ACTCGTAG", "binding signal": -0.0708}
{"sequence": "GTTTGGTA", "binding signal": 0.147}
{"sequence": "CTATAAGC", "binding signal": 0.0134}
{"sequence": "ACGGCACT", "binding signal": -0.0273}
{"sequence": "GCGGATTA", "binding signal": 0.318}
{"sequence": "AGTGTCCC", "binding signal": 0.0828}
{"sequence": "GGCAACAA", "binding signal": -0.0385}
{"sequence": "AATAAGAG", "binding signal": -0.0077}
{"sequence": "ATTCCACG", "binding signal": -0.024}
{"sequence": "CATGGCTC", "binding signal": -0.0285}
{"sequence": "GTCGAACA", "binding signal": -0.179}
{"sequence": "AAATAAAA", "binding signal": -0.236}
{"sequence": "CATGTATA", "binding signal": 0.223}
{"sequence": "TAAGGACA", "binding signal": -0.157}
{"sequence": "TAATGGCA", "binding signal": -0.157}
{"sequence": "CGGGTATA", "binding signal": 0.365}
{"sequence": "ACGGGACG", "binding signal": -0.292}
{"sequence": "AATGCCGC", "binding signal": -0.185}
{"sequence": "CCCTAACA", "binding signal": -0.0426}
{"sequence": "CACCCATC", "binding signal": 0.145}
{"sequence": "CCACAGAC", "binding signal": -0.147}
{"sequence": "GGCTCACC", "binding signal": 0.096}
{"sequence": "CATGAGCG", "binding signal": -0.214}
{"sequence": "CTTACTCA", "binding signal": 0.0665}
{"sequence": "GTATGTTA", "binding signal": 0.113}
{"sequence": "GGAAGGGA", "binding signal": -0.246}
{"sequence": "CCGGGCGA", "binding signal": 0.0346}
{"sequence": "CAAATAGG", "binding signal": 0.012}
{"sequence": "TTCCCGAA", "binding signal": -0.104}
{"sequence": "AATCGAAA", "binding signal": -0.249}
{"sequence": "GATTCTGC", "binding signal": 0.0554}
{"sequence": "CGCACAGC", "binding signal": -0.0487}
{"sequence": "CGGATACG", "binding signal": 0.387}
{"sequence": "GCTACCTA", "binding signal": -0.136}
{"sequence": "CTGCGATC", "binding signal": 0.322}
{"sequence": "AGGTTGTC", "binding signal": -0.158}
{"sequence": "ACGGTCAA", "binding signal": -0.133}
{"sequence": "GGCGGGAA", "binding signal": -0.0964}
{"sequence": "AAATTCTG", "binding signal": 0.0126}
{"sequence": "GCGCTGGA", "binding signal": -0.218}
{"sequence": "GACATTCA", "binding signal": -0.0929}
{"sequence": "GTCGTAAC", "binding signal": -0.108}
{"sequence": "ATATCGCC", "binding signal": 0.441}
{"sequence": "CTCCCTTC", "binding signal": -0.0355}
{"sequence": "CAAGTCAG", "binding signal": -0.218}
{"sequence": "CTGTATGA", "binding signal": 0.187}
{"sequence": "AGTCGGGA", "binding signal": -0.0706}
{"sequence": "CCAGACGG", "binding signal": -0.0166}
{"sequence": "CCCTACTC", "binding signal": 0.14}
{"sequence": "AGCCTAAA", "binding signal": -0.12}
{"sequence": "CAGAAAGA", "binding signal": -0.116}
{"sequence": "AAGGCATC", "binding signal": 0.00281}
{"sequence": "CGTGAGAA", "binding signal": 0.147}
{"sequence": "CGACCCAG", "binding signal": -0.0309}
{"sequence": "ATGGACTC", "binding signal": -0.209}
{"sequence": "GAGATTCA", "binding signal": -0.0703}
{"sequence": "CGCCACAG", "binding signal": 0.05}
{"sequence": "TAGTGTGA", "binding signal": 0.184}
{"sequence": "TAGAATGA", "binding signal": 0.0388}
{"sequence": "ACTCCCTA", "binding signal": -0.177}
{"sequence": "CAATTGAG", "binding signal": 0.103}
{"sequence": "GTTACGAA", "binding signal": -0.236}
{"sequence": "CGTCATTC", "binding signal": 0.0143}
{"sequence": "AACACATG", "binding signal": -0.283}
{"sequence": "ACCAATAC", "binding signal": 0.282}
{"sequence": "AAAGTCAA", "binding signal": -0.271}
{"sequence": "GACTCCCC", "binding signal": -0.0447}
{"sequence": "CCGCGTAC", "binding signal": -0.107}
{"sequence": "CGTACGGA", "binding signal": -0.0537}
{"sequence": "AGGCTGAG", "binding signal": -0.00774}
{"sequence": "CCGATACC", "binding signal": 0.478}
